This experiment deals with T1, purified human TRAP1 (human, UniProt Q12931 60-704).
T1 sequence: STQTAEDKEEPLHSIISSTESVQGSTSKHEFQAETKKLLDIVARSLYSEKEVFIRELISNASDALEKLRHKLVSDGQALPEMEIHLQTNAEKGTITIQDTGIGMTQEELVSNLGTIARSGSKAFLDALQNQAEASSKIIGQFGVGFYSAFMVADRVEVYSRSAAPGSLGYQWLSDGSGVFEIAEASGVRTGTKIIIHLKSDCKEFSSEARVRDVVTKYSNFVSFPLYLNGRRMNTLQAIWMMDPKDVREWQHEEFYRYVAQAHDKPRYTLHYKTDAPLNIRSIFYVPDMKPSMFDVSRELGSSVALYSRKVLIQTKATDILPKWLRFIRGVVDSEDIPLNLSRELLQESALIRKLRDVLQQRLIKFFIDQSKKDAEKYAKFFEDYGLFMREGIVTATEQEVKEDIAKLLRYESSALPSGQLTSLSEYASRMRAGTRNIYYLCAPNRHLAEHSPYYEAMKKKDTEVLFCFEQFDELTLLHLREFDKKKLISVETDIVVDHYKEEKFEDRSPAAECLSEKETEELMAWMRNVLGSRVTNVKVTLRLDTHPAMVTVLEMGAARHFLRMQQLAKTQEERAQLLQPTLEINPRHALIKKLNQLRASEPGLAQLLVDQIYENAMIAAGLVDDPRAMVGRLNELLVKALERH
Briefly: far-Western, overlay or dot blot.

B1: F-ATP synthase subunit β (bovine heart) (natural protein)
chain: not shown
As for B1, the binding result is given as “binds”.

These data come from article doi:10.1101/2021.12.06.471412 (bioRxiv, 2021).
